# Test results reported in patent US5760092A, “Allocolchinones and uses thereof” (Brandeis University, priority 1996, dated 1998).
# Key:
# [1] = system: MDA-N breast cancer cells
# [2] = system: HCC-2998 colon cancer cells; assay: cells; settings: Homo sapiens
# [3] = system: IGR-OV1 ovarian cancer cells
# CCRF-CEM leukemia cells [4] = assay: cells; settings: Homo sapiens
# [5] = system: NCI-H226 non-small cell lung cancer cells; assay: cells; settings: Homo sapiens
# [6] = system: T-47D breast cancer cells
# M14 melanoma cells = assay: cells; settings: Homo sapiens
# [7] = system: PC-3 prostate cancer cells; assay: cells
# K-562 leukemia cells [8] = system: K-562 leukemia cells
# [9] = system: COLO 205 colon cancer cells; assay: cells; settings: Homo sapiens, COLO 205
# [10] = system: MDA-MB-435 breast cancer cells
# [11] = system: NCI-H23 non-small cell lung cancer cells; assay: cells; settings: Homo sapiens
# [12] = system: HCC-2998 colon cancer cells; settings: human, hcc-2998 colon cancer cells
# UACC-62 melanoma cells [13] = system: UACC-62 melanoma cells
# UACC-62 melanoma cells [14] = assay: cells; settings: Homo sapiens
# [15] = system: OVCAR-4 ovarian cancer cells; assay: cells; settings: Homo sapiens, OVCAR-4, read-out: LC50
# UACC-257 melanoma cells = assay: cells; settings: Homo sapiens
# ACHN renal cancer cells = assay: cells; settings: Homo sapiens
# CCRF-CEM leukemia cells [16] = system: CCRF-CEM leukemia cells
# [17] = system: EKVX non-small cell lung cancer cells
# [18] = system: EKVX non-small cell lung cancer cells; assay: cells; settings: Homo sapiens
# [19] = system: DU-145 prostate cancer cells; assay: cells; settings: Homo sapiens
# UO-31 renal cancer cells = assay: cells; settings: Homo sapiens
# [20] = system: HCT-116 colon cancer cells; assay: cells; settings: Homo sapiens
# [21] = system: OVCAR-5 ovarian cancer cells; assay: cells; settings: Homo sapiens
# [22] = system: SW-620 colon cancer cells
# MCF7 breast cancer cells = assay: cells; settings: Homo sapiens
# HT29 colon cancer cells = assay: cells; settings: Homo sapiens
# K-562 leukemia cells [23] = assay: cells; settings: Homo sapiens
# [24] = system: OVCAR-4 ovarian cancer cells
# [25] = system: NCI-H460 non-small cell lung cancer cells
smiles,measurement,setting,value
CCCC(=O)NC1CCc2cc(OC)c(OC)c(OC)c2-c2ccc(C(C)=O)cc21 (centres unmarked),TGI,[1],< 0.01 µM
same,TGI,SR leukemia cells,< 0.01 µM
same,GI50,[2]; HCC 2998,< 0.01 µM
same,CC50,"[2]; HCC 2998, read-out: LC50",74 µM
same,TGI,[3],> 100 µM and 77.2 µM
same,GI50,CCRF-CEM leukemia cells [4],< 0.01 µM
same,CC50,CCRF-CEM leukemia cells [4]; read-out: LC50,> 100 µM
same,GI50,[5]; NCI-H226,< 0.01 µM
same,CC50,"[5]; NCI-H226, read-out: LC50",> 100 µM
same,TGI,[6],> 100 µM
same,GI50,M14 melanoma cells; M14,< 0.01 µM
same,CC50,"M14 melanoma cells; M14, read-out: LC50",> 100 µM
same,GI50,[7],< 0.01 µM
same,CC50,"[7]; Homo sapiens, read-out: LC50",> 100 µM
same,TGI,MALME-3M melanoma cells,52.5 µM and > 100 µM
same,TGI,K-562 leukemia cells [8],> 100 µM
same,TGI,SN12C renal cancer cells,> 100 µM
same,TGI,786-0 renal cancer cells,> 100 µM
same,GI50,[9],< 0.01 µM
same,TGI,[10],< 0.01 µM
same,GI50,[11]; NCI-H23,< 0.01 µM
same,CC50,"[11]; NCI-H23, read-out: LC50",> 100 µM
same,CC50,[12],97 µM
same,TGI,UACC-62 melanoma cells [13],> 100 µM
same,GI50,UACC-62 melanoma cells [14]; UACC-62,< 0.01 µM
same,CC50,"UACC-62 melanoma cells [14]; UACC-62, read-out: LC50",> 100 µM
same,CC50,[15],> 100 µM
same,GI50,UACC-257 melanoma cells; UACC-257,< 0.01 µM
same,CC50,"UACC-257 melanoma cells; UACC-257, read-out: LC50",> 100 µM
same,TGI,SK-MEL-5 melanoma cells,11.1 µM
same,GI50,ACHN renal cancer cells,< 0.01 µM
same,CC50,ACHN renal cancer cells; read-out: LC50,> 100 µM
same,TGI,CCRF-CEM leukemia cells [16],> 100 µM
same,TGI,[17],> 100 µM
same,GI50,[18],< 0.01 µM
same,CC50,[18]; read-out: LC50,> 100 µM
same,GI50,[19]; DU-145,< 0.01 µM
same,CC50,"[19]; DU-145, read-out: LC50",> 100 µM
same,GI50,UO-31 renal cancer cells; UO-31,0.0152 µM
same,CC50,"UO-31 renal cancer cells; UO-31, read-out: LC50",> 100 µM
same,GI50,[20]; HCT-116,< 0.01 µM
same,CC50,"[20]; HCT-116, read-out: LC50",> 100 µM
same,GI50,[21]; OVCAR-5,< 0.01 µM
same,CC50,"[21]; OVCAR-5, read-out: LC50",> 100 µM
same,TGI,[22],> 100 µM
same,GI50,MCF7 breast cancer cells; MCF7,< 0.01 µM
same,CC50,"MCF7 breast cancer cells; MCF7, read-out: LC50",> 100 µM
same,GI50,HT29 colon cancer cells; HT-29,< 0.01 µM
same,CC50,"HT29 colon cancer cells; HT-29, read-out: LC50",> 100 µM
same,GI50,K-562 leukemia cells [23]; K562,< 0.01 µM
same,CC50,"K-562 leukemia cells [23]; K562, read-out: LC50",> 100 µM
same,TGI,[24],> 100 µM
same,TGI,[25],> 100 µM

# Several values for one entry are separate records, joined by “and”; a condition that tells them apart may be missing. Equal values may be shown once. Read-outs that look alike come from different tables or passages of the source.
